What was measured:
[1] = Non-GLP single-dose range-finding intravenous toxicity study in rats; format: in vivo, Sprague Dawley rats
[2] = Non-GLP single-dose range-finding intravenous infusion toxicity study in cynomolgus monkeys; format: in vivo
Text: The animals were placed in sling restraints during dosing.
Bone marrow smears were collected and preserved.
Formalin was infused into the lung via the trachea.
Paired organs were weighed together.

[3] = Once weekly intravenous toxicity and toxicokinetic study in rats; format: in vivo
Procedure: The objective of this study was to evaluate potential toxicity of G9.2-17, an IgG4 human monoclonal antibody directed against galectin-9 at different doses, when administered by intravenous infusion to Sprague Dawley Rats once weekly for 4 consecutive weeks followed by a 3-week post dose recovery period. In addition, the toxicokinetic characteristics of G9.2-17 were determined.
One hundred eighty-six animals (Sprague Dawley rats) were assigned to treatment groups randomly by body weight. Control Article/Vehicle, Formulation Buffer for Test Article, and test article, G9.2-17, were administered via a single IV injection in a tail vein at dose levels of 0, 100, and 300 mg/kg once on Days 1, 8, 15, 22, and 29. Test article was administered at dose levels of 100 and 300 mg/kg once on Day 1 to animals assigned to the SSD subgroup.
Clinical observations were performed once daily prior to room cleaning in the morning, beginning on the second day of acclimation. A mortality check was conducted twice daily to assess general animal health and wellness. Food consumption was estimated by weighing the supplied and remaining amount of food in containers once weekly. The average gram (g)/animal/day was calculated from the weekly food consumption. Body weights were taken prior to randomization, on Day −1, then once weekly throughout the study, and on the day of each necropsy. Functional Observation Battery (FOB) observations were recorded for SSB animals approximately 24 hours post dose administrations on Days 1, 35 and 49. Urine was collected overnight using metabolic cages. Samples were obtained on Days 36 and 50.
Animals were fasted overnight prior to each series of collections that included specimens for serum chemistry. In these instances, associated clinical pathology evaluations were from fasted animals. Blood was collected from a jugular vein of restrained, conscious animals or from the vena cava of anesthetized animals at termination.
Parameters assessed during the In-life examinations of the study included clinical observations, food consumption, body weights, functional observational battery. Blood samples were collected at selected time points for clinical pathology (hematology, coagulation, and serum chemistry) analyses. Urine samples were collected for urinalysis. Blood samples were also collected at selected time points for toxicokinetic (TK), immunogenicity (e.g., anti-drug antibody or ADA), and cytokine analyses. Animals were necropsied on Days 36 and 50. At each necropsy, gross observations and organ weights were recorded, and tissues were collected for microscopic examination.

M2 macrophages = assay: Inhibition of polarization and repolarization of M2 macrophages (TGF-beta1, IL-10 secretion); format: cell-based, human
Text: Whole blood from three healthy human donors was used to isolate CD14+ monocytes. The monocytes were allowed to differentiate to macrophages in X-VIVO-15 media (Lonza) in a 10 cm tissue culture dish for 7 days. The differentiated macrophages were either used directly for assessing inhibition of polarization, or they were cryopreserved and used at a later time for repolarization assays. Prior to use in an assay, the M0 macrophages were phenotyped.
Two different polarization cocktails were used to evaluate macrophage polarization: one with a mixture of IL-4 and IL-13, and a second containing only gal-9. The effect of G9.2-17 on M2 polarization was tested via its direct addition to one of these cocktails, and incubation with macrophages for 48 hours. The effect of G9.2-17 on repolarization of M2 macrophages was tested via addition to the M2-polarized macrophages.
The state of polarization was identified by the measurement of secretion of either IL-10 (repolarization) or TGF-beta1 (inhibition of polarization and repolarization). These factors were quantified in cell culture supernatants using CytoMetric Bead Arrays following the manufacturer's protocol.

[4] = Nonclinical studies conducted to-date (toxicity); format: in vivo; conditions: doses ˜500-fold above those intended for human administration
[5] = Once weekly 5-week intravenous infusion toxicity and toxicokinetic study in cynomolgus monkeys
[6] = either sex, any dose level, any interval
[7] = once weekly for a total of 5 doses
[8] = all donors, vs untreated and IgG4 isotype control, both types of polarization cocktails
[9] = either sex, any dose level, any timepoint

B1: G9.2-17 (IgG4): fully human IgG4 monoclonal antibody (mAb) targeting galectin-9; heavy chain SEQ ID NO: 19, light chain SEQ ID NO: 15 (antibody)
heavy: EVQLVESGGGLVQPGGSLRLSCAASGFTVSSSSIHWVRQAPGKGLEWVAYISSSSGYTYYADSVKGRFTISADTSKNTAYLQMNSLRAEDTAVYYCARYWSYPSWWPYRGMDYWGQGTLVTVSSASTKGPSVFPLAPCSRSTSESTAALGCLVKDYFPEPVTVSWNSGALTSGVHTFPAVLQSSGLYSLSSVVTVPSSSLGTKTYTCNVDHKPSNTKVDKRV[sequence of human IgG4 Fc with S228P L445P (EU numbers) not given]
light: DIQMTQSPSSLSASVGDRVTITCRASQSVSSAVAWYQQKPGKAPKLLIYSASSLYSGVPSRFSGSRSGTDFTLTISSLQPEDFATYYCQQSSTDPITFGQGTKVEIKRTVAAPSVFIFPPSDEQLKSGTASVVCLLNNFYPREAKVQWKVDNALQSGNSQESVTEQDSKDSTYSLSSTLTLSKADYEKHKVYACEVTHQGLSSPVTKSFNRGEC
In the case of B1, the “findings in clinical observations, body weights, food consumption, clinical pathology or anatomic pathology” value ([1]; single IV 10, 30, 70 mg/kg) is reported as “No G9.2-17 IgG4-related findings”, the mortality ([1]; single IV bolus 10, 30, 70 mg/kg, necropsies Days 8 and 22) is reported as “All animals survived to the scheduled necropsies” and the tolerability ([1]; single intravenous administration of 10, 30, and 70 mg/kg) is reported as “tolerated with no adverse findings”. For the same molecule, the NOEL ([1]; single intravenous dose) was 70 mg/kg, the “macroscopic findings, organ weight changes, microscopic findings” value ([1]; terminal and recovery necropsy animals) was “no test article-related macroscopic findings, organ weight changes, or microscopic findings” and the “clinical or veterinary observations” value ([2]; cynomolgus monkey, in vivo) was “No test article-related clinical or veterinary observations”. The gross necropsy observations ([2]; cynomolgus monkey, in vivo) was “no findings that were considered to be test article related”, the organ weight alterations ([2]; cynomolgus monkey, in vivo) was “no organ weight alterations that were considered to be test article-related” and the “effects on clinical chemistry endpoints” value [2, 6] was “no G9.2-17 IgG4-related effects”. For the same molecule, the “effects on coagulation times or fibrinogen concentrations” value [2, 6] was “no G9.2-17 IgG4-related effects”, the “effects on cytokine endpoints” value [2, 6] was “no G9.2-17 IgG4-related effects” and the “effects on hematology endpoints” value [2, 6] was “no G9.2-17 IgG4-related effects”. For the same molecule, the mortality ([2]; scheduled necropsy Day 22) was “All animals survived”, the “findings in clinical observations, body weights, food consumption, clinical pathology, immunophenotyping, galectin-9 expression on leukocyte subsets, soluble galectin-9 or anatomic pathology” value ([2]; single 30-minute IV infusion 30, 100, 200 mg/kg) was “No G9.2-17 IgG4-related findings” and the “No-observed-Adverse-Effect-Level (NOAEL)” value ([2]; single IV infusion, highest dose level evaluated) was 200 mg/kg. The tolerability ([2]; single intravenous infusion of 30, 100, and 200 mg/kg) was “tolerated with no adverse findings”, the “effects on body weight” value ([2]; treatment or recovery period) was “No test article-related effects” and the clinical observations ([3]; IV 100 and 300 mg/kg on Days 1, 8, 15, 22, 29) was “no G9.2-17-related clinical observations”. For the same molecule, the “changes in clinical observations, food consumption, body weights, FOB parameters, clinical pathology, cytokine, gross observations, or organ weights” value [3, 7] was “no G9.2-17-related changes”, the tolerability [3, 7] was “generally well tolerated” and the “absolute or relative organ weights” value ([3]; rat, in vivo) was “no G9.2-17-related changes”. The clinical pathology parameters ([3]; rat, in vivo) was “no G9.2-17-related changes”, the “food consumption, body weights or body weight gain” value ([3]; rat, in vivo) was “no G9.2-17-related changes” and the gross observations ([3]; rat, in vivo) was “no G9.2-17-related gross observations”. The histologic findings ([3]; rat, in vivo) was “no G9.2-17-related histologic findings”, the “serum concentrations of IL-2, IL-4, IFN-γ, IL-5, IL-6, IL-10, and/or TNF-α, MCP-1 and MIP-1b” value ([3]; rat, in vivo) was “no G9.2-17-related changed” and the “secreted IL-10 levels” value (M2 macrophages; [8]) was “reduction”. The “secreted TGF-b1 levels” value (M2 macrophages; [8]) was “reduction”, the “inhibition of IL-10” value (M2 macrophages; concentration of 20 μg/ml) was “potently inhibit” and the “inhibition of TGF-beta1” value (M2 macrophages; concentration of 20 μg/ml) was “potently inhibit”. For the same molecule, the TGF-beta1 secretion (M2 macrophages; polarization of fresh monocyte-derived macrophages, vs isotype matched control or untreated cells, all donors) was “decrease in TGF-beta1 secretion”, the TGF-β1 secretion (M2 macrophages; previously frozen macrophages, 20 ng/mL IL-4/IL-13 polarization cocktail) was “abolished the IL-4/IL-13-dependent increase of TGF-β1 secretion” and the “toxicities in nonclinical studies” value [4] was “no significant toxicities”. For the same molecule, the mortality ([5]; 100 and 300 mg/kg/dose once weekly x5, necropsy Day 36, recovery Day 50) was “All animals survived”, the effects on cytokines ([5]; any dose level or timepoint) was “No definitive G9.2-17-related effects” and the “G9.2-17 in serum samples after dose administration” value ([5]; bioanalysis, LLOQ <0.04 ug/mL) was “quantifiable in all cynomolgus monkey samples from all G9.2-17-dosed animals”. For the same molecule, the microscopic observations ([5]; cynomolgus monkey, in vivo) was “no definitive test article-related microscopic observations”, the “Peripheral Blood Leukocyte Analysis (PBLA) endpoints” value [5, 9] was “no G9.2-17-related effects” and the clinical chemistry parameters [5, 9] was “no G9.2-17-related effects”. The coagulation parameters [5, 9] was “no G9.2-17-related effects”, the hematology parameters [5, 9] was “no G9.2-17-related effects” and the urinalysis parameters ([5]; either sex, any dose level, at the 13-week interim) was “No G9.2-17-related alterations”. For the same molecule, the macroscopic observations ([5]; main study or recovery animals) was “no definitive test article-related macroscopic observations”, the organ weight changes ([5]; main study or recovery animals) was “no test article-related organ weight changes” and the tolerability ([5]; once weekly IV infusion of 100 and 300 mg/kg for 5-weeks) was “tolerated with no adverse findings”. The “Functional Observational Battery” value ([5]; treatment or recovery periods) was “No test article-related FOB observations”, the blood pressure values ([5]; treatment or recovery periods) was “No test article-related effects” and the “body weight and body weight gain” value ([5]; treatment or recovery periods) was “No test article-related effects”. For the same molecule, the “clinical and veterinary observations” value ([5]; treatment or recovery periods) was “No test article-related clinical or veterinary observations”, the electrocardiographic evaluations ([5]; treatment or recovery periods) was “No test article-related effects” and the ophthalmology examinations ([5]; treatment or recovery periods) was “No test article-related effects”. The respiratory rate values ([5]; treatment or recovery periods) was “No test article-related effects”.

— US20240182583A1, “COMBINATION OF ANTI-GALECTIN-9 ANTIBODIES AND CHEMOTHERAPEUTICS FOR USE IN CANCER THERAPY” (PURETECH LYT, INC., priority 2021, published 2024)
